# Test results reported in patent US20120022048A1, “Anti-proliferative substituted pyrazolo[3,4-d]pyrimidines derivatives (SPP) to inhibit immune activation, virus replication and tumor growth” (priority 2010, published 2012).
# The name of at least one read-out is uncertain.
# Tests used:
# Assay type in all cases: cell-based
# [1] = system: HIV-1 NL 4.3; test: HIV-1 replication in activated T cells (PBMC, p24 Ag ELISA); conditions: 7 days, SPPs and Imatinib 10 μM, HU 100 μM, ddI 2 μM
# Experimental: The experimental setup described below allows us to detect direct antiviral activity of a compound.
# Human PBMC, obtained from healthy, normal donors, were stimulated for two days with PHA 5 μg/ml. Then cells were infected with HIV-1 NL 4.3, IL-2 was added (20 U/ml), cells were plated (10^5 cells per well in 200 μl) and drug treatment started. […] The control was left untreated. After 7 days of incubation at 37° C. supernatants were harvested and HIV-1 p24 Ag was measured by ELISA.
# [2] = system: primary human CD4 T-lymphocytes; test: Cell hyperproliferation in primary T cells (CFSE staining, mitotic index); conditions: % of not treated control (100%); day 10; SPPs 10 μM, Imatinib 10 μM, HU 100 μM
# Experimental: We built up an experimental model using primary T cells to study the activity of the compounds on induced hyperproliferation of cells, which is a characteristic of both chronic viral diseases and cancer including HIV and leukemia.
# (§1) Unstimulated (quiescent/resting, day 0 to 5) primary human CD4 T-lymphocytes were obtained by magnetic bead separation from healthy, normal donors. After five days in culture, cells were activated with PHA (5 μg/ml) to induce hyperproliferation then, at day 7, IL-2 (20 U/ml) was added (stimulated, day 6 to 10). All available compounds were tested at a concentration of 10 μM. […] At day 10, cells were harvested. Proliferation of T cells, cultured as described above, was studied by staining the cells with carboxyfluorescein diacetate-succinimidyl ester (CFSE) at day 0 (immediately after infection). For data analysis, the mitotic index (M) was used, calculating the sum of mitotic events at each proliferation cycle. To extract a relative number, M was normalized to the total number of cells acquired using the equation M=Σ[(Xn(T)−Xn(T)/2^n)], that gives the number of mitotic events from the experimentally obtained values of the proportion of T cells under each division peak n (Xn) and the total T cells (T). To study the effect of the compounds on apoptosis T cells were cultured as described above and at day 10 cells were stained with Annexin V and 7-AAD, in order to determine the percentage of total apoptotic events.
# [3] = system: HIV-1 NL 4.3; test: HIV-1 replication in quiescent CD4 T cells (p24 Ag ELISA); conditions: day 10, SPPs 10 μM, HU 100 μM, HU 100 μM+ddI 2 μM
# Experimental: Unstimulated (quiescent/resting, day 0 to 5) human CD4 T-lymphocytes, obtained by magnetic bead separation from healthy, normal donors, were infected with HIV-1 NL 4.3. After five days in culture, cells were stimulated with PHA (5 μg/ml) to induce proliferation, and then, at day 7, IL-2 (20 U/ml) was added (stimulated, day 6 to 10). All available compounds were tested at a concentration of 10 μM. HU 100 μM and HU 100 μM+ddI 2 μM were also employed as comparators and the negative control was left untreated. At day 10, cells and supernatants were harvested and HIV-1 p24 Ag was measured by ELISA. HIV replication was expressed as percentage p24 compared to the untreated control.
# [4] = system: primary human CD4 T-lymphocytes; test: Apoptosis in primary CD4 T cells (Annexin V and 7-AAD staining); conditions: total apoptotic events compared to untreated control; day 10; SPPs 10 μM, Imatinib 10 μM, HU 100 μM, ddI 2 μM
# Experimental: as §1
# We determined the capacity of the compounds to affect the percentages of apoptotic events after 10 days of treatment in primary CD4 T cells.
SMILES,HIV activated cells (% p24 compared to not treated control) [1],mitotic index % [2],HIV quiescent cells (percentage p24 compared to the untreated control) [3],apoptosis % [4]
"NC(=O)NO [HU, hydroxyurea, reference compound]",82.6 ± 16.2%,26.0 ± 2.0%,13.0±19.4%,95.9 ± 31.7%
"Cc1ccc(NC(=O)c2ccc(CN3CCN(C)CC3)cc2)cc1Nc1nccc(-c2cccnc2)n1 [Imatinib, reference compound]",11.8 ± 5.6%,,10.6 ± 8.2%,
"CCCCNc1nc(SCC)nc2c1cnn2CC(Cl)c1ccccc1 (centres unmarked) [VS1-002, N-butyl-1-(2-chloro-2-phenylethyl)-6-(ethylthio)-1H-pyrazolo[3,4-d]pyrimidin-4-amine]",13.6±13.0%,25.2 ± 13.7%,9.9 ± 9.4%,114.4 ± 51.7%
"CSc1nc(NCc2ccccc2)c2cnn(CC(Cl)c3ccccc3)c2n1 (centres unmarked) [VS1-003, 1-(2-chloro-2-phenylethyl)-6-(methylthio)-N-benzyl-1H-pyrazolo[3,4-d]pyrimidin-4-amine]",23.8±7.6%,43.0 ± 6.0%,5.5 ± 8.9%,64.4 ± 15.1%
"CSc1nc(NCCc2ccccc2)c2cnn(CC(Cl)c3ccccc3)c2n1 (centres unmarked) [VS1-004, 1-(2-chloro-2-phenylethyl)-6-(methylthio)-N-(2-phenylethyl)-1H-pyrazolo[3,4-d]pyrimidin-4-amine]",11.6±11.7%,23.1 ± 16.9%,7.3 ± 11.4%,139.8 ± 64.7%
"CSc1nc(NCCc2ccccc2)c2cnn(C=Cc3ccccc3)c2n1 [VS1-005, 1-styryl-6-methylthio-N-(2-phenylethyl)-1H-pyrazolo[3,4-d]pyrimidin-4-amine]",10.3 ± 5.9%,73.0 ± 5.0%,2.6 ± 3.1%,51.9 ± 12.7%
"ClC(Cn1ncc2c(NCc3ccccc3)ncnc21)c1ccccc1 (centres unmarked) [VS1-010, N-benzyl-1-(2-chloro-2-phenylethyl)-1H-pyrazolo[3,4-d]pyrimidin-4-amine]",11.8±5.6%,1.4 ± 0.6%,10.6 ± 8.2%,149.8 ± 40.0%
"CSc1nc(Nc2cccc(Cl)c2)c2cnn(CC(Cl)c3ccccc3)c2n1 (centres unmarked) [VS1-011, N-(3-chlorophenyl)-1-(2-chloro-2-phenylethyl)-6-(methylthio)-1H-pyrazolo[3,4-d]pyrimidin-4-amine]",15.5±2.6%,0.4 ± 0.3%,20.4 ± 4.0%,281.6 ± 145.0%
"Fc1ccc(CNc2ncnc3c2cnn3CC(Cl)c2ccc(Cl)cc2)cc1 (centres unmarked) [VS1-029, 1-[2-chloro-2-(4-chlorophenyl)ethyl]-N-(4-fluorobenzyl)-1H-pyrazolo[3,4-d]pyrimidin-4-amine]",,4.4 ± 2.6%,,134.0 ± 33.1%
